Results taken from patent US20220185900A1.

Biological target: human RET on cells (MCF7/SRE-Luc; HEK293/hGFRα3/hRET/SRE-Luc; HEK293/hGFRα1/hRET/SRE-Luc) (human), P07949
Assay: cell-based or functional assay

293/hGFRα3/hRET SRE-luc % Blocking: 77%
293/hGFRα3/hRET/SRE-Luc IC50: 1.6 nM
MCF7/SRE-Luc % Activation: 2%
MCF7/SRE-Luc Avg % Blocking: 85%
MCF7/SRE-luc Avg. IC50: 2.1 nM
B1: H4H8044P (antibody, human IgG4, V domains shown)
VH: QVQLVESGGGVVQPGRSLRLSCAASGFTFSGSGMHWVRQAPGKGLEWVAVIWEDGSNKYYADSVRGRFTISRDNFKNTLYLQMNSLRAEDTAVYYCARQTMVRGVIRFYYYYYGMDVWGQGTTVTVSS
VL: [sequence of about 100 residues omitted]PTFGQGTKVEIK
